Data published in patent US20260184782A1 (TWIST BIOSCIENCE, published 2026).

T1: TIGIT (UniProt Q495A1 22-141, limits assumed)
T1 construct: construct not described; also called T cell immunoreceptor with Ig and ITIM domains
T1 sequence (looked up): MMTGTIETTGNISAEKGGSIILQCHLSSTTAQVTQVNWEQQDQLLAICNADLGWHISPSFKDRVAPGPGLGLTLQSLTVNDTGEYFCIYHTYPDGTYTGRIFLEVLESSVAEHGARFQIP

T2: TIGIT (UniProt Q495A1 22-141, limits assumed)
T2 construct: also called T cell immunoreceptor with Ig and ITIM domains; hTIGIT
T2 sequence (looked up): T1 sequence (looked up)

B1: TIGIT-30-17 VHH-Fc (Fc fusion)
chain: EVQLVESGGGLVQAGGSLRLSCAASGSIFNIGMGWFRQAPGKEREWVSSIYSNGHTYYADSVKGRFTISADNAKNTVYLQMNSLKPEDTAVYYCANSNKPKFDWGQGTQVTVSSGGGGS[in this place human IgG1 Fc with C220S (EU numbers)]
B2: TIGIT-30-33 VHH-Fc (Fc fusion)
chain: EVQLVESGGGLVQAGGSLRLSCAASGFTLENNMMGWFRQAPGKERELVSAIGWSGASTYYADSVKGRFTISADNAKNTVYLQMNSLKPEDTAVYYCAANLRGDNWGQGTQVTVSSGGGGS[in this place human IgG1 Fc with C220S (EU numbers)]
B3: TIGIT-30-31 VHH-Fc (Fc fusion)
chain: EVQLVESGGGLVQAGGSLRLSCAASGPTFSWTMMGWFRQAPGKEREFLAIITDGSKTLYADSVKGRFTISADNAKNTVYLQMNSLKPEDTAVYYCAAQFTLARHLVWGQGTQVTVSSGGGGS[in this place human IgG1 Fc with C220S (EU numbers)]
B4: TIGIT-30-53 VHH-Fc (Fc fusion)
chain: EVQLVESGGGLVQAGGSLRLSCAASGLTFSNYVMGWFRQAPGKERESVAAINWDSARTYYADSVKGRFTISADNAKNTVYLQMNSLKPEDTAVYYCASAGRWGQGTQVTVSSGGGGS[in this place human IgG1 Fc with C220S (EU numbers)]
B5: TIGIT-30-46 VHH-Fc (Fc fusion)
chain: EVQLVESGGGLVQAGGSLRLSCAASGRTFSTYASMWWFRQAPGKEREFLAIITDGSKTLYADSVKGRFTISADNAKNTVYLQMNSLKPEDTAVYYCAGSWSYPGLTWGQGTQVTVSSGGGGS[in this place human IgG1 Fc with C220S (EU numbers)]
B6: TIGIT-30-44 VHH-Fc (Fc fusion)
chain: EVQLVESGGGLVQAGGSLRLSCAASGVTLDLYAMGWFRQAPGKEREFVAGIWRSGGSTVYADSVKGRFTISADNAKNTVYLQMNSLKPEDTAVYYCATWTTTWGRNRDWGQGTQVTVSSGGGGS[in this place human IgG1 Fc with C220S (EU numbers)]
B7: TIGIT-30-15 VHH-Fc (Fc fusion)
chain: EVQLVESGGGLVQAGGSLRLSCAASGFTFSGNWMGWFRQAPGKEREWVSGISSGGGRTYYADSVKGRFTISADNAKNTVYLQMNSLKPEDTAVYYCAADVWYGSTWRNWGQGTQVTVSSGGGGS[in this place human IgG1 Fc with C220S (EU numbers)]
B8: TIGIT-30-22 VHH-Fc (Fc fusion)
chain: B7 chain with F29L, W47F, S49A, G50S, G54S, G56V, R57S, T58K, Y59H, Q111R
B9: TIGIT-30-45 VHH-Fc (Fc fusion)
chain: EVQLVESGGGLVQAGGSLRLSCAASGGTFSGGFMGWFRQAPGKEREWVASVLRGGYTWYADSVKGRFTISADNAKNTVYLQMNSLKPEDTAVYYCANGGSSYWGQGTQVTVSSGGGGS[in this place human IgG1 Fc with C220S (EU numbers)]
B10: TIGIT-30-20 VHH-Fc (Fc fusion)
chain: EVQLVESGGGLVQAGGSLRLSCAASGPTFSIYDMGWFRQAPGKEREFVAVINWSRGSTFYADSVKGRFTISADNAKNTVYLQMNSLKPEDTAVYYCAAGVWSSLRHTAANWGQGTQVTVSSGGGGS[in this place human IgG1 Fc with C220S (EU numbers)]
B11: TIGIT-30-14 VHH-Fc (Fc fusion)
chain: B10 chain with V50A, N52T, S54N, R55S, S57R, F59N, V100A, H106K, N110S
B12: TIGIT-30-25 VHH-Fc (Fc fusion)
chain: B10 chain with V50S, I51T, N52I, S57D, F59Y
B13: TIGIT-30-26 VHH-Fc (Fc fusion)
chain: EVQLVESGGGLVQAGGSLRLSCAASGRTYYAMGWFRQAPGKEREFLAIITDGSKTLYADSVKGRFTISADNAKNTVYLQMNSLKPEDTAVYYCAAQFTLARHLVWGQGTQVTVSSGGGGS[in this place human IgG1 Fc with C220S (EU numbers)]
B14: TIGIT-30-19 VHH-Fc (Fc fusion)
chain: EVQLVESGGGLVQAGGSLRLSCAASGRTFSSYAMMGWFRQAPGKEREFLAIITDGSKTLYADSVKGRFTISADNAKNTVYLQMNSLKPEDTAVYYCAAQFTLARHLVWGQGTQVTVSSGGGGS[in this place human IgG1 Fc with C220S (EU numbers)]
B15: TIGIT-30-41 VHH-Fc (Fc fusion)
chain: B14 chain with T101I
B16: TIGIT-30-28 VHH-Fc (Fc fusion)
chain: EVQLVESGGGLVQAGGSLRLSCAASGRTFESYRMGWFRQAPGKEREFVGGINWSGRTYYADSVKGRFTISADNAKNTVYLQMNSLKPEDTAVYYCAARRLYSGSYLDWGQGTQVTVSSGGGGS[in this place human IgG1 Fc with C220S (EU numbers)]
B17: TIGIT-30-16 VHH-Fc (Fc fusion)
chain: EVQLVESGGGLVQAGGSLRLSCAASGFPFSEYPMGWFRQAPGKEREFVAVVNWNGDSTYYADSVKGRFTISADNAKNTVYLQMNSLKPEDTAVYYCANFNRDWGQGTQVTVSSGGGGS[in this place human IgG1 Fc with C220S (EU numbers)]
B18: TIGIT-30-23 VHH-Fc (Fc fusion)
chain: EVQLVESGGGLVQAGGSLRLSCAASGRAFRRYTMGWFRQAPGKEREFVAAIRWSGGTTFYADSVKGRFTISADNAKNTVYLQMNSLKPEDTAVYYCAAEWAAMKDWGQGTQVTVSSGGGGS[in this place human IgG1 Fc with C220S (EU numbers)]
B19: TIGIT-31-35 (VHH-Fc) (Fc fusion)
chain: EVQLVESGGGLVQPGGSLRLSCAASGFTFSTSWMGWFRQAPGKERELVASITSGGTTNYADSVKGRFTISADNSKNTAYLQMNSLKPEDTAVYYCAADVWYGSTWRNWGQGTLVTVSSGGGGS[in this place human IgG1 Fc with C220S (EU numbers)]
B20: TIGIT-31-01 (VHH-Fc) (Fc fusion)
chain: B19 chain with S30D, T31R, L47V, T56S, N58Y
notes: also called TIGIT-31-1; 31-1
B21: TIGIT-30-55 (VHH-Fc) (Fc fusion)
chain: EVQLVESGGGLVQAGGSLRLSCAASGNTFSGGFMGWFRQAPGKEREWVASVLRGGYTWYADSVKGRFTISADNAKNTVYLQMNSLKPEDTAVYYCATGWQSTTKSQGWGQGTQVTVSSGGGGS[in this place human IgG1 Fc with C220S (EU numbers)]
B22: TIGIT-30-58 (VHH-Fc) (Fc fusion)
chain: B7 chain with T28A, S30G, G31D, N32S
B23: TIGIT-30-57 (VHH-Fc) (Fc fusion)
chain: B10 chain with V50A, N52T, S54N, R55S, S57R, T58I, F59G
B24: TIGIT-30-56 (VHH-Fc) (Fc fusion)
chain: EVQLVESGGGLVQAGGSLRLSCAASGLTISTYPMGWFRQAPGKEREFVAAVNWSGRRELYADSVKGRFTISADNAKNTVYLQMNSLKPEDTAVYYCAAFREYHWGQGTQVTVSSGGGGS[in this place human IgG1 Fc with C220S (EU numbers)]

Target: T1, TIGIT
Experiment: Carterra SPR, VHH-Fc

Row | Kd [nM] | koff [s⁻¹] | kon [M⁻¹ s⁻¹] | Binder
1 | 311 | 130 | 4.3e+08 | B1
2 | 1550 | 0.18 | 120000 | B2
3 | 450 | 450 | 1e+09 | B3
4 | 78 | 41 | 5.3e+08 | B4
5 | 206 | 120 | 5.8e+08 | B5
6 | 584 | 360 | 6.1e+08 | B6
7 | 55 | 0.007 | 130000 | B7
8 | 811 | 0.037 | 45000 | B8
9 | 736 | 1.5 | 2.1e+06 | B9
10 | 74 | 0.14 | 1.9e+06 | B10
11 | 75 | 0.01 | 140000 | B11
12 | 117 | 0.004 | 34000 | B12
13 | 347 | 0.0099 | 28000 | B13
14 | 417 | 79 | 1.9e+08 | B14
15 | 309 | 74 | 2.4e+08 | B15
16 | 147 | 130 | 8.9e+08 | B16
17 | 116 | 0.056 | 480000 | B17
18 | – | 0.29 | 440 | B18

Target: T1, TIGIT
Experiment: ELISA

Row | ELISA | Binder
19 | 6.7 | B1
20 | 3.8 | B2
21 | 3.8 | B3
22 | 7.6 | B4
23 | 5.9 | B5
24 | 3.5 | B6
25 | 9.3 | B7
26 | 7.6 | B8
27 | 3.3 | B9
28 | 4.6 | B10
29 | 9.9 | B11
30 | 9.3 | B12
31 | 6.1 | B13
32 | 6.4 | B14
33 | 8.7 | B15
34 | 7.6 | B16
35 | 7.9 | B17
36 | 4.1 | B18

Target: T2, TIGIT
Experiment: ELISA

Row | ELISA | Binder
37 | 5.7 | B19
38 | 5.7 | B20
39 | 6 | B21
40 | 3.3 | B22
41 | 5.2 | B23
42 | 4.6 | B24

Target: T2, TIGIT
Experiment: SPR (Carterra), VHH-Fc

Row | Kd [nM] | koff [s⁻¹] | kon [M⁻¹ s⁻¹] | Binder
43 | 66 | 0.032 | 480000 | B19
44 | 12 | 0.0035 | 280000 | B20
45 | 85 | 0.003 | 35000 | B21
46 | 1050 | 18 | 1.7e+07 | B22
47 | 95 | 95 | – | B23
48 | 214 | 160 | 7.5e+08 | B24

Changes are numbered by the printed parent chain.
